Assay results taken from the supplement of paper PMC3334620.
Over roughly 33,000 sequences, “E-score (-0.5 to 0.5)” has its median near -0.054; the highest 2% begin near 0.39. The list shows a part of the results.

What follows are sequences tested against Ylr278c (UniProt Q05854) (assay: PBM E-score (8-mer binding enrichment) (E-score (-0.5 to 0.5)); higher = stronger / more preferred TF binding; most listed sequences are background and not binding sites). Conditions: protein concentration: 200 nM; construct: GST-DNA-binding domain.
Method: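 Universal 'all 10-mer' protein binding microarrays (Agilent AMADID 015681) probed with GST-tagged S. cerevisiae TFs (full-length or DBD) made by in vitro transcription/translation (PURExpress), about 100-200 nM. Bound TF was detected with fluorescent anti-GST. Each ungapped 8-mer (which stands for itself and its reverse complement) is scored by the PBM enrichment score (E-score), a modified Wilcoxon-Mann-Whitney statistic from -0.5 to +0.5, computed with the Universal PBM Analysis Suite. Scale: above 0.35 generally sequence-specific binding.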

Sequence | PBM E-score
AACCTTCC | 0.0498
ATCGAAAA | -0.129
AAAGTTTA | 0.0725
TAATTACA | -0.0706
CGGGCGCA | 0.138
GATGAAAC | 0.0107
AAGGCCTG | -0.219
AGCGGGGC | 0.165
ACCATACG | -0.0843
AGCGAATG | -0.153
GGTTTACA | 0.0578
AAACATGC | -0.0927
AGTAACGC | -0.149
ATTAGCTG | -0.147
ATCCAAAA | 0.0091
GCTTCAGA | -0.163
CCATAAGA | -0.0653
CTCATGAG | -0.295
GAACTAGC | -0.105
AACGTTTC | -0.256
CAGTAAAG | -0.15
GGACGACA | 0.0893
CGCAGAAA | 0.0305
GGTAGTGA | -0.00488
ATTGGCCC | -0.211

Sequence | PBM E-score
CCGCGGAC | 0.429
AACTTAAA | -0.205
ATACTACA | 0.0379
CACCAGCG | 0.042
AATGAGAG | -0.233
AACACTGT | -0.166
GACGGAAA | 0.35
CTTGCCCA | -0.209
AGTCAGTG | -0.216
AGGAAACC | 0.0384
ACACGGGG | 0.226
AAATTTCG | 0.0227
AGCAGCCT | -0.33
CCGTAAAA | 0.191
GGGTAAAA | 0.145
TCGTCTCA | -0.195
GCATTCGA | 0.0187
CAGCAAAA | -0.152
CCCCCGCG | 0.285
CTCTTACC | 0.0788
CACCAACG | 0.0218
AAAGCTAC | -0.229
CTCCTCTA | -0.261
CACCTATA | -0.241
AGACGTCG | -0.0911

Sequence | PBM E-score
GACGGTAA | 0.127
CTCCAATA | 0.138
CAATTAGG | 0.0143
ACAAAGGA | -0.00647
ATCGGCCG | 0.358
GAAGCGAA | -0.0949
ATGATTAA | -0.0907
TCACACGA | -0.0855
ACAGACTG | -0.175
ACATTCGT | -0.165
AGTATCGG | 0.253
GCCCTGAC | -0.255
TACACTGA | -0.181
GTAAAGAC | -0.0608
CACTGAGC | -0.136
GTGAGAAC | -0.12
AGGGATCA | -0.181
ATTAATTC | 0.206
AGCAACCC | -0.103
CCCTCAAA | -0.094
AACGGGGT | 0.095
CGGAAACC | 0.338
ACAAATGC | 0.0458
AGAAAACA | 0.0327
AAAGGACA | -0.152

Sequence | PBM E-score
TAGCCGCA | 0.041
GTCATGGA | -0.16
CGGTATAA | 0.165
AACAGATT | -0.095
AAGCCGTG | 0.00789
CGGGTTTC | 0.363
AGGCCTAC | -0.167
ATATCCTG | -0.228
CGGTTAAC | 0.08
CATCGTTA | -0.149
GACCTCAC | -0.06
TCCCAGCA | 0.0439
CATTGTGG | -0.0447
ATTCATTA | -0.00812
AAAACGCC | 0.247
GAGGGCCA | -0.0537
CTGTTGCA | 0.109
AGACTGGC | -0.245
ACCTCTTC | -0.00604
GCTATCTA | -0.13
GGCTTACC | -0.0346
AAAACACT | -0.0393
CTTCACTC | 0.00394
CGTTAAGC | -0.051
AGGCCCTC | -0.0303

Sequence | PBM E-score
AACGAGAT | -0.0713
CCAAGTAC | -0.112
AGAACGTC | -0.21
GATTCTCA | -0.0742
ACCTGCGC | 0.19
AGGGACGC | -0.315
AGGCATCG | -0.0932
GAACGTAA | -0.0134
CCCTAACA | -0.141
AAGCTGTC | -0.128
GAGTCTGC | -0.21
CAGCCTTC | -0.156
GTACTGGA | -0.156
AGTCCCGC | 0.225
ACGTTGGA | -0.299
CAATGACA | -0.241
CTACAGCA | -0.214
GAGACCAA | 0.0642
AATTAAGA | -0.156
GATCTTCA | 0.0678
ACTAAAAA | 0.158
GCCTTTTA | -0.183
CTCGAAAG | -0.0372
ACTCCCAA | 0.0108
CGTTCTAG | -0.128

Sequence | PBM E-score
CTAGACAG | -0.045
ACTAGTAC | -0.225
GAGACATA | 0.0839
CGATCACA | 0.0452
CCCTAATA | -0.219
GCTGTTGA | -0.0401
GCATTCAA | -0.23
ACGATGAG | -0.0386
GTGTGCAA | -0.177
CCACCCCA | -0.155
CGGACGCA | 0.272
ATATTACG | 0.0625
CATAAGTA | -0.152
CGCCTGAG | -0.00521
GAAATAAA | 0.0286
ACACACCT | 0.101
CGACCGCG | 0.237
AATGGTAA | 0.0806
CAAACTGA | -0.0902
ATGGGACA | -0.0454
GCACGGCC | 0.153
ACTATGAT | -0.222
ACATTAGC | -0.076
CATTAGAA | 0.00262
ACTTACTC | -0.0871

Sequence | PBM E-score
CGCCTCGC | 0.0203
CGCCCGTA | 0.128
ACCACGAG | -0.157
AGCTTGTC | 0.023
AATGATCG | 0.134
ATTTATAG | -0.184
CAGGACAG | -0.225
ATCAAATC | 0.00979
CCGATTAC | 0.261
AATTGAGA | 0.0618
GAGGCCAA | -0.0462
TACCACTA | -0.219
AAGAAACA | 0.0505
GGGCACCC | -0.0395
ACCAGTAT | -0.00687
GTAGACCA | -0.229
AATATCGT | -0.121
TGCTAACA | -0.0474
CGTTTCAA | -0.0838
ATTGGATA | -0.139
ACCTGGCA | -0.0877
ATCTTATG | -0.0906
